In all, about 33,000 sequences were measured (“E-score (-0.5 to 0.5)”: median about -0.021, highest 2% from about 0.32 on). The list shows a part of the results.
target: T1, Zap1 (UniProt P47043); test: PBM E-score (8-mer binding enrichment) (E-score (-0.5 to 0.5)); higher = stronger / more preferred TF binding; most listed sequences are background and not binding sites; conditions: protein concentration: 200 nM; construct: GST-full length
T1 sequence: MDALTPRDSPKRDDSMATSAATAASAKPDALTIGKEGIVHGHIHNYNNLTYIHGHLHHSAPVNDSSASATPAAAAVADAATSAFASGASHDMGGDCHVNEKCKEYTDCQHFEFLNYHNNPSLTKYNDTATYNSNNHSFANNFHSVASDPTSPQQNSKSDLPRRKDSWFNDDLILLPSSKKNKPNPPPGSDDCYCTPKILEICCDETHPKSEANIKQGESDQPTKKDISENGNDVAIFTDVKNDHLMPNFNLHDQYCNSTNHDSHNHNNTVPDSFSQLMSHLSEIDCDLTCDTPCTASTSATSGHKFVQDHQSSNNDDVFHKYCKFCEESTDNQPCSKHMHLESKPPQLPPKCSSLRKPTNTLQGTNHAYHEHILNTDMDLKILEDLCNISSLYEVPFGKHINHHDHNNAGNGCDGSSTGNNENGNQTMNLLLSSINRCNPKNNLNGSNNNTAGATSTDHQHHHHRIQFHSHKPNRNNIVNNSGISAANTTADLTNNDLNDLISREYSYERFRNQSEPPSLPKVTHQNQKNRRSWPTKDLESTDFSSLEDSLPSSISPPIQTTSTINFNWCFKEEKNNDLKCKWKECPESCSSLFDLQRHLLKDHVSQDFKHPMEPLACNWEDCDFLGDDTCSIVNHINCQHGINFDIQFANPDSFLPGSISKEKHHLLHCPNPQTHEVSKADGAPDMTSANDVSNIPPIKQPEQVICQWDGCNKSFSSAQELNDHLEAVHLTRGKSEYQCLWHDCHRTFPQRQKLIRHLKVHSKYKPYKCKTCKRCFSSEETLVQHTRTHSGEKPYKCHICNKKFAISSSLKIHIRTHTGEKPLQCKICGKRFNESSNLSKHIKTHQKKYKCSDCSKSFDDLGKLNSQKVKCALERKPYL
Outline: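 Bound GST-tagged yeast transcription factors, applied at about 100-200 nM to double-stranded universal all-10-mer Agilent arrays, were detected with fluorescent anti-GST. Scans were normalised with masliner. A modified Wilcoxon-Mann-Whitney statistic, the E-score, was assigned to each ungapped eight-base word pooled with its reverse complement by the Universal PBM Analysis Suite.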

Sequence	PBM E-score
ATTTTCAA	0.135
ATGTCGTG	-0.0761
AGTTATAA	0.193
CTAATTCA	-0.0193
CGTACAAG	-0.0243
CGCATGTA	-0.0451
AAGCTCGA	-0.0303
ACTGTTAC	-0.0312
CAGTGAAA	-0.00327
ATGTCTGA	-0.232
CATATTAA	0.277
ACCAAGCA	0.208
ACAGCCGG	0.0917
ACAGCACC	-0.146
ACCGCCTA	-5e-05
AGTTATGC	0.0469
CCATTTTC	0.119
GGTTTGGA	0.135
TAAGCACA	0.0783
GTGAGGGA	-0.0834
CGGGTCCC	-0.116
AATTCTGA	0.0239

Sequence	PBM E-score
GTCCTCAA	0.0163
ATGTGCTC	-0.0103
ATCCCATG	-0.0549
CAACGTCG	-0.0764
GACGCGGA	-0.0173
ATACACTC	0.0552
CTCAAGGC	0.0438
ATCCAGCA	-0.107
CCGCATAC	0.0877
GGTCAGCA	0.14
GCGTATAC	-0.00708
ATGGAGTA	-0.0173
CGTTGTAC	0.0582
AGGAGAAC	-0.0223
GGCAGAAA	0.181
CGCTAGTC	-0.294
GTCCTCAC	-0.0399
AAGCAATA	-0.141
ATAGGCCC	-0.00479
AACGGCTA	-0.0947
CTCGTCTA	-0.145
AAGTACAC	0.0551

Sequence	PBM E-score
CAAAAGGA	0.00165
CGCACATA	-0.261
CCAGGCCG	-0.0809
AGAGAGCT	-0.212
AGTTGGGG	-0.0889
ATTCAAGA	-0.105
GACGAACA	-0.026
ATGGGATA	-0.156
GAAAACCA	0.263
ATCGCATA	0.0205
TGACTCAA	-0.108
ATCCAAAT	-0.0156
GCGGGCCC	-0.0946
ATTCCCAA	0.18
CCCTCTTC	-0.137
ACTGCTCA	0.094
AGATTCCG	0.163
GGTCCTTA	0.143
ACATTAAC	0.195
ACGAGGAT	-0.069
AGTTCCGC	0.037
AGCGTCCT	-0.258

Sequence	PBM E-score
CTCCTTAC	-0.0613
GTTTTTCA	0.189
AACAGTAC	0.13
CTTGAGGC	-0.17
TTATGCAA	0.162
ATTGTACA	0.0531
AAGTACGC	-0.152
ACGCTGGC	-0.233
GTGACAGA	-0.0613
ACTGAACG	-0.0857
CGCCGGCA	-0.189
ACGGGCCA	-0.0237
CAAAGGCC	0.103
CCCCTGCG	-0.17
GACTGTGC	-0.209
CCGACCCA	0.074
AAAAAAAC	0.216
ACCCCGTA	0.27
GAAACGAC	0.00701
CAAGGACG	-0.0639

From the supplement of paper PMC3334620
